Assay results as given in PubChem BioAssay AID720542 (National Center for Advancing Translational Sciences (NCATS), 2013).
Out of some 360,000 compounds screened, about 740 (0.21%) were called active. This list was built around the results that the source calls inconclusive (neither active nor inactive); the mix of calls is not that of the screen. The call rests on the fitted dose curve; in most records, active means well fitted inhibition curve with a large enough effect; inconclusive means small, poorly fitted or top-dose-only effect; inactive means no such curve, though single readings can be large or run the other way. Potencies of inconclusive entries are left out as doubtful fits.

Each molecule was assayed on Plasmodium falciparum AMA1 (3D7) - RON2 peptide interaction (assay: qHTS for Inhibitors of AMA1-RON; Towards Development of Antimalarial Drug Lead: Primary Screen). Details: AlphaScreen AMA1-biotinylated RON2 peptide binding; activity change, negative = inhibition: at 58.2 µM (top of the series) unless noted.
Outline: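 AMA1 (3D7) with his tag at 25 nM final met compounds first, then biotinylated RON2 peptide at 25 nM; detection used donor plus acceptor beads, 10 µg/mL apiece, read by AlphaScreen after 30 min at room temperature.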
Further: nearly all actives have a fitted effect of over 45% in size.
Potency means the concentration at half of the fitted maximal effect; tags describe the fitted curve by direction and shape.
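Wherever activity change, negative = inhibition is given: 0% = vehicle wells and -100% = peptide control.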

| SMILES | Potency | activity change, negative = inhibition |
| --- | --- | --- |
| CN(C)c1ccc(N=Nc2ccccc2Br)cc1 | active: 11.2 µM |  |
| Oc1cccc(C2c3[nH]c4ccccc4c3CCN2Cc2ccc3c(c2)CCO3)c1 (stereo not drawn) | inconclusive [inhibitor, single point] |  |
| CCC1c2ccc(C)n2CCN1C(=O)Nc1cc(Cl)ccc1OC (stereo not drawn) |  | inactive: 41.8% |
| Cc1ncc(CO)c(/C=N/NC(=O)c2cc(Br)ccc2O)c1O | active: 3.98 µM |  |
| Cn1c(N/N=C/c2c[nH]c3ccccc23)nc2ccccc21 | inconclusive [inhibitor, partial curve] |  |
| CCOC(=O)C1(Cc2ccccc2)CCN(Cc2cccn2-c2nccs2)CC1 | inconclusive [inhibitor, partial curve, poor fit] |  |
| CC(C)c1ccccc1OCC(O)CN1CCN(S(=O)(=O)c2ccc([N+](=O)[O-])cc2)CC1 (stereo not drawn) | inconclusive [inhibitor, single point] |  |
| Cc1cc(/C=C\c2ccc3cc(N(C)C)ccc3[n+]2C)c(C)n1-c1ccccc1 | inconclusive [inhibitor, partial curve] |  |
| Cc1nn(-c2ccccc2)c(N2CCCC2)c1/C=N/NC(=S)Nc1ccccc1F |  | inactive: 76.6% |
| COc1ccc(CNC(=O)C[C@H]2C[C@H](C(=O)N3CCOCC3)[C@@]3(CCC4CCCC4)c4[nH]c5cc(-c6ccco6)ccc5c4CCN3C2=O)cc1OC | inconclusive [inhibitor, partial curve] |  |
| O=[N+]([O-])c1ccc(Cl)c(/C=N/N2CCN(c3ccccc3)CC2)c1 | inconclusive [inhibitor, single point] |  |
| COCCNCC(=O)N1c2ccccc2Sc2ccccc21 | inconclusive [inhibitor, partial curve] |  |
| COc1ccccc1/C=N/NC(=O)Cn1cnc([N+](=O)[O-])n1 |  | inactive: 6.88% |
| Cc1ccc2nc(-c3cccnc3)oc2c1 | inconclusive [inhibitor, single point] |  |
| COC(=O)c1ccccc1NC(=O)N1c2ccccc2Sc2ccccc21 | inconclusive [inhibitor, partial curve] |  |
| COc1ccc(OC)c(CCNC(=O)CC2Oc3ccc(C)cc3NC2=O)c1 (stereo not drawn) |  | inactive: 14.3% |
| COc1ccc(C(C)(O)c2nc(-c3ccc(N(C)C)cc3)cs2)cc1 (stereo not drawn) | inconclusive [inhibitor, partial curve] |  |
| CCCN1C(=O)/C(=C/C=C2\N(CC)c3ccccc3C2(C)C)SC1=S | inconclusive [inhibitor, full curve] |  |
| Cn1nnnc1N=N/C(=N/Nc1ccccc1)c1ccccc1 | inconclusive [inhibitor, partial curve] |  |
| O=C(c1cc2cc(Br)cc(Br)c2oc1=O)N1CCCC1 |  | inactive: 1.02% |
| O=C(O)CSc1cc(C(=O)c2ccccc2O)cn2c(=O)c3c4c(sc3nc12)CCCC4 | inconclusive [inhibitor, single point] |  |
| O=[N+]([O-])c1cc(S(=O)(=O)C(F)(F)F)ccc1Sc1nc2ccccc2s1 | inconclusive [inhibitor, full curve, poor fit] |  |

| SMILES | Potency | activity change, negative = inhibition |
| --- | --- | --- |
| COc1ccc(C(=O)/C=C/c2ccc(N3CCCCC3)c([N+](=O)[O-])c2)c(OC)c1 | inconclusive [inhibitor, partial curve] |  |
| CC(C)CCN(C)C1CCN(S(=O)(=O)c2ccc(F)cc2)CC1 |  | inactive: -1.19% |
| N#CC(=C1C=CC(=NO)C(Cl)=C1)c1ccc(Cl)cc1 | inconclusive [inhibitor, full curve] |  |
| COc1ccc(Nc2ccc(C(F)(F)F)cc2[N+](=O)[O-])cn1 | inconclusive [inhibitor, single point] |  |
| CCCn1c(N)c(N(CCOC)C(=O)c2cc(-c3ccco3)nc3ccccc23)c(=O)[nH]c1=O | inconclusive [inhibitor, partial curve] |  |
| COC(=O)c1cc(S(=O)(=O)Nc2cccc(OC)c2)cn1C |  | inactive: -6.53% |
| Cc1cn(CC(=O)NCC2CCCO2)c(=O)[nH]c1=O (stereo not drawn) |  | inactive: 0% |
| COc1ccc(C2CC(c3ccc([N+](=O)[O-])cc3)=NN2C(=O)c2ccccc2)cc1OC (stereo not drawn) | inconclusive [inhibitor, single point] |  |
| COc1ccc(N2CCN(CC(=O)Nc3cccc(S(=O)(=O)N4CCOCC4)c3)CC2)cc1 | inconclusive [inhibitor, partial curve] |  |
| CCOc1ccc(C2c3[nH]c4ccccc4c3CCN2CCCn2cccn2)cc1 (stereo not drawn) | inconclusive [inhibitor, partial curve] |  |
| O=C1C=C(Nc2ccccc2)C(=O)c2ccccc21 | inconclusive [inhibitor, partial curve] |  |
| O=[N+]([O-])c1ccc(C2Nc3cccc4cccc(c34)N2)cc1 | inconclusive [inhibitor, partial curve] |  |
| CC(C)(C)N1C(=O)c2ccc(C(=O)Nc3cc(C(=O)O)cc(C(=O)O)c3)cc2C1=O |  | inactive: -2.58% |
| CCNC(=O)c1ccc(N(C)S(=O)(=O)c2cccs2)cc1 | inconclusive [inhibitor, single point] |  |
| CC1=C([N+](=O)[O-])C(c2ccccc2)C2=C(N1)c1ccccc1C2=O (stereo not drawn) | inconclusive [inhibitor, single point] |  |
| CCOc1cc2c(cc1OCC)-n1cccc1C(c1cccc(F)c1F)NC2 (stereo not drawn) | inconclusive [inhibitor, partial curve] |  |
| O=C(O)CCn1cc(/C=N/O)c(-c2cccc([N+](=O)[O-])c2)n1 |  | inactive: 8.64% |
| c1ccc2c3c([nH]c2c1)C(C1CCCCC1)N(Cc1ncc[nH]1)CC3 (stereo not drawn) | inconclusive [inhibitor, partial curve] |  |
| CCCN(CC(=O)Nc1ccccc1OC)C(=O)C1CCCC1 |  | inactive: -6.37% |
| O=C(CCN1C(=O)/C(=C/C=C/c2ccccc2)SC1=S)Nc1nc2ccccc2s1 | inconclusive [inhibitor, full curve] |  |
| Cc1ccc(OCC(=O)Nc2ccccc2N2CCCC2)c(C)c1 | inconclusive [inhibitor, single point] |  |
